Laboratory results as given in the supplement of paper PMC3334620.
In all, about 33,000 sequences were measured (“E-score (-0.5 to 0.5)”: median about -0.056, highest 2% from about 0.38 on). Some of the results follow.

biological target: Stb4 (UniProt P50104); assay: PBM E-score (8-mer binding enrichment) (E-score (-0.5 to 0.5)); higher = stronger / more preferred TF binding; most listed sequences are background and not binding sites; conditions: protein concentration: 200 nM; construct: GST-DNA-binding domain
Outline: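 Masliner-normalised scans of fluorescent anti-GST signal were the basis for scoring. That signal came from GST-tagged yeast transcription factors applied at about 100-200 nM to double-stranded universal all-10-mer Agilent arrays on fresh or once-stripped slides. Each ungapped eight-base word, pooled with its reverse complement, received an E-score from the Universal PBM Analysis Suite.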

| Sequence | PBM E-score |
| --- | --- |
| CTTCGGGC | 0.291 |
| GGTACTAC | 0.0917 |
| GCGAAGCA | 0.0182 |
| CGCAGTTC | -0.0365 |
| AGTAGCCC | 0.106 |
| AGTGGCAT | -0.0624 |
| CCACTAAG | -0.0818 |
| TATTGGGA | -0.178 |
| GGAGGACC | 0.0144 |
| AGATTTTA | -0.0136 |
| AGACTCAG | -0.149 |
| AGGACTGC | -0.292 |
| CACCGATG | -0.0266 |
| CCCGATTA | 0.291 |
| CTGCACAG | -0.0816 |
| CGGACTAA | 0.225 |
| AGTTTTGC | -0.00155 |
| TAGCTAAA | -0.0773 |
| GGGAAGAC | 0.106 |
| AGGGATGG | -0.174 |
| CACACCAG | -0.227 |
| ACGACGCA | -0.0583 |
| AATCCCCA | -0.157 |
| ACCTTTGA | -0.103 |
| GCAATCGA | -0.00458 |

| Sequence | PBM E-score |
| --- | --- |
| ATTACGCG | 0.056 |
| ACGTCATG | -0.195 |
| CGGGTAAC | 0.393 |
| ACCAGCGA | -0.0461 |
| ATCCTCAA | 0.115 |
| CAGCCGCA | -0.0661 |
| GAATTCAC | -0.0439 |
| GTATCCAA | -0.0398 |
| AAATTAGA | -0.0616 |
| CTCGTTGA | -0.247 |
| TCCAATCA | -0.0146 |
| CACCGGAA | 0.412 |
| CCATGTGA | -0.167 |
| ATTGACAG | -0.0183 |
| GAAAGTCC | 0.0828 |
| TAAAGAAA | 0.076 |
| AGCTACGC | -0.143 |
| ACGAACGC | -0.15 |
| ACGTTAGG | -0.22 |
| ATCACCAG | -0.0727 |
| GGTAGTCA | -0.0705 |
| ACTGAAAA | -0.00443 |
| CGCGGATA | 0.4 |
| ACGCCTCG | 0.0824 |
| CTTAGCTA | -0.128 |

| Sequence | PBM E-score |
| --- | --- |
| CTTCTCTC | -0.135 |
| ACAAGGGT | -0.0844 |
| GGAACTCA | 0.207 |
| AGTAGCAC | -0.0343 |
| TCATGGAA | 0.033 |
| ACATGGGT | 0.00817 |
| TCATAGGA | -0.155 |
| CTGACCGC | 0.151 |
| AAGGATAG | 0.00922 |
| ACGGATCT | 0.28 |
| GTGGGCGA | -0.178 |
| GTATTCGA | -0.169 |
| CCGGAGAC | 0.289 |
| ACAGACCA | -0.108 |
| ATAGAACC | -0.0706 |
| ACTAGTAT | -0.0476 |
| CAGAGGAC | -0.137 |
| GCGTTGTA | -0.267 |
| CCATGAAA | -0.0336 |
| CTAGCCAC | -0.287 |
| CACGTATA | -0.0961 |
| CCTGGGCA | -0.264 |
| ATTAAGCG | -0.147 |
| ACGTCTAT | -0.141 |
| CGTCCGGA | 0.3 |

| Sequence | PBM E-score |
| --- | --- |
| GGCAAACC | 0.115 |
| AGCGTTCA | -0.0378 |
| AAATCTGA | -0.0542 |
| AGCTATGA | -0.099 |
| CATCGGAC | 0.259 |
| GCGGTGAA | -0.079 |
| TAACCTCA | -0.139 |
| CATACCTC | -0.125 |
| AGAAAACG | 0.0795 |
| GGACTCCA | 0.0858 |
| CCCCATGA | -0.121 |
| CCATCAAG | -0.303 |
| ACCATCCA | -0.0674 |
| ATCAGGCA | -0.242 |
| ACCTCTCT | -0.252 |
| AGCCTGAC | -0.204 |
| GCATGTAA | -0.223 |
| CACATTAA | -0.246 |
| TAGATCAA | -0.189 |
| CAATCTGG | -0.199 |
| AAAGTGAT | -0.0394 |
| GACCCACC | 0.0559 |
| GATACCCA | -0.188 |
| AACGCTCC | -0.179 |
| ACTAAAGC | -0.195 |

| Sequence | PBM E-score |
| --- | --- |
| AAAGCGTA | 0.189 |
| GCACGATA | 0.0337 |
| ACTCATCC | 0.113 |
| AAACAGCC | 0.0192 |
| ATGATTGG | -0.111 |
| GCTACGAA | -0.176 |
| GACACATA | -0.124 |
| AGGAACTC | -0.0879 |
| AGTAACGA | -0.17 |
| AACGCAGC | -0.106 |
| AAGGTAGT | 0.0685 |
| CGCTTGAG | -0.219 |
| AAGCGACA | -0.099 |
| AATTTCGT | -0.0623 |
| AGATAAAA | 0.00409 |
| CGATATCA | -0.0336 |
| GCCGGTGA | 0.0548 |
| AATCGCCG | 0.212 |
| CACCGTCC | 0.0816 |
| ATTATATA | -0.0872 |
| AGGCCGCA | -0.152 |
| CCGACACA | 0.257 |
| CACTCACA | 0.0246 |
| AGGTCCAT | -0.0701 |
| TCGCTAAA | -0.0444 |

| Sequence | PBM E-score |
| --- | --- |
| ACTGTTCA | 0.00126 |
| AGCGGTAA | 0.172 |
| AGTTAGCA | -0.0145 |
| ACTATACG | 0.00583 |
| ATAGGCAC | -0.166 |
| ACAATAGG | -0.0504 |
| ACCAGAGG | -0.26 |
| AATGCATA | -0.0419 |
| AATAAAGA | -0.0131 |
| AGTGCGAG | -0.133 |
| GACTCCTC | 0.075 |
| AGAGGCCA | -0.108 |
| TCGTCTAA | -0.133 |
| CCGGGATC | 0.384 |
| ATCGTGGG | -0.0127 |
| AGCCCGAT | 0.0559 |
| TGTCCCAA | -0.0943 |
| ATAGTCTG | -0.241 |
| CGTATCTC | 0.113 |
| AGGGCAAG | 0.0211 |
| ATACGATG | 0.0197 |
| GCTTCGCA | -0.173 |
| AACAGGGG | -0.00592 |
| GAGCGAGC | 0.0386 |
| ACGTATGG | -0.197 |

| Sequence | PBM E-score |
| --- | --- |
| ACTTCAAG | -0.229 |
| ACTGTCTA | -0.185 |
| CACAGCCC | -0.158 |
| GTGAAGGA | -0.119 |
| CAAACCGA | 0.135 |
| ATGAACAC | -0.0474 |
| ACGAAAAT | -0.199 |
| GCAAAGAA | 0.0392 |
| AAAAATTT | 0.0986 |
| AACCCGCA | 0.156 |
| AGGCTTGG | -0.0137 |
| AGAAAGTC | 0.0306 |
| ATAAATCG | 0.00309 |
| GAGTCGAC | -0.126 |
| ACATAGTC | -0.1 |
| ACTCTCAG | -0.279 |
| GACAAGCC | -0.0179 |
| CGTCGACA | -0.0762 |
| ACCCTGCT | -0.149 |
| CATACAAG | -0.0716 |
| GGTCAGAA | 0.00512 |
| CCGGAAAC | 0.394 |
